From the antibiotic and cytotoxicity screens of Wong et al. (2023)
This is one part of the list.

Key:
HSkMC = human skeletal muscle cells; test: cytotoxicity call (relative viability < 0.9); details: 10 µM
HepG2 = test: cytotoxicity call (relative viability < 0.9); details: 10 µM
S. aureus RN4220 = test: growth inhibition call (relative growth <= 0.2); details: 50 µM

| Structure (SMILES) | cytotoxicity call (HSkMC) | cytotoxicity call (HepG2) | growth inhibition call (S. aureus RN4220) |
| --- | --- | --- | --- |
| Cc1ccc(CNC[C@H]2Cn3nncc3CO2)o1 | inactive | inactive | inactive |
| C[C@H](CO)N1C[C@H](C)[C@H](CN(C)S(=O)(=O)c2cccs2)Oc2ccc(NC(=O)C3CC3)cc2C1=O | inactive | inactive | inactive |
| C[C@@H]1CN([C@H](C)CO)S(=O)(=O)c2ccc(-c3cccnc3)cc2O[C@@H]1CN(C)C(=O)NC1CCCC1 | inactive | inactive | inactive |
| CC(C)NC(=O)Nc1ccc2c(c1)CC(=O)N([C@H](C)CO)C[C@@H](C)[C@@H](CN(C)Cc1ccc(-c3ccccc3)cc1)O2 | inactive | active | inactive |
| CCOC(=O)N(C)C[C@H]1OCc2cn(nn2)CCCC(=O)N([C@@H](C)CO)C[C@H]1C | inactive | inactive | inactive |
| C[C@H]1CCCCO[C@H](CN(C)C(=O)Nc2ccc3c(c2)OCO3)[C@@H](C)CN([C@@H](C)CO)C(=O)c2cc(NS(=O)(=O)c3ccc(Cl)cc3)ccc2O1 | inactive | active | inactive |
| COc1ccc(NC(=O)N(C)C[C@H]2Oc3ccc(NC(=O)CCCCCC(=O)Nc4ccccc4N)cc3CC(=O)N([C@H](C)CO)C[C@@H]2C)cc1 | inactive | inactive | inactive |
| C[C@H]1CN([C@@H](C)CO)C(=O)Cc2cc(NS(=O)(=O)c3cccs3)ccc2O[C@H]1CN(C)CC1CC1 | inactive | inactive | inactive |
| COC(=O)c1c(CC[C@@H](CO)NC(=O)N2CCC[C@H]2Cn2cc(C3(O)CCCCC3)nn2)oc(C(C)=O)c1C(=O)OC | inactive | inactive | inactive |
